# Whole data set: some 33,000 sequences, median “E-score (-0.5 to 0.5)” near -0.043, cut for the highest 2% near 0.37. This is one part of the list.
# Molecular target: T1, Upc2 (UniProt Q12151)
# T1 sequence: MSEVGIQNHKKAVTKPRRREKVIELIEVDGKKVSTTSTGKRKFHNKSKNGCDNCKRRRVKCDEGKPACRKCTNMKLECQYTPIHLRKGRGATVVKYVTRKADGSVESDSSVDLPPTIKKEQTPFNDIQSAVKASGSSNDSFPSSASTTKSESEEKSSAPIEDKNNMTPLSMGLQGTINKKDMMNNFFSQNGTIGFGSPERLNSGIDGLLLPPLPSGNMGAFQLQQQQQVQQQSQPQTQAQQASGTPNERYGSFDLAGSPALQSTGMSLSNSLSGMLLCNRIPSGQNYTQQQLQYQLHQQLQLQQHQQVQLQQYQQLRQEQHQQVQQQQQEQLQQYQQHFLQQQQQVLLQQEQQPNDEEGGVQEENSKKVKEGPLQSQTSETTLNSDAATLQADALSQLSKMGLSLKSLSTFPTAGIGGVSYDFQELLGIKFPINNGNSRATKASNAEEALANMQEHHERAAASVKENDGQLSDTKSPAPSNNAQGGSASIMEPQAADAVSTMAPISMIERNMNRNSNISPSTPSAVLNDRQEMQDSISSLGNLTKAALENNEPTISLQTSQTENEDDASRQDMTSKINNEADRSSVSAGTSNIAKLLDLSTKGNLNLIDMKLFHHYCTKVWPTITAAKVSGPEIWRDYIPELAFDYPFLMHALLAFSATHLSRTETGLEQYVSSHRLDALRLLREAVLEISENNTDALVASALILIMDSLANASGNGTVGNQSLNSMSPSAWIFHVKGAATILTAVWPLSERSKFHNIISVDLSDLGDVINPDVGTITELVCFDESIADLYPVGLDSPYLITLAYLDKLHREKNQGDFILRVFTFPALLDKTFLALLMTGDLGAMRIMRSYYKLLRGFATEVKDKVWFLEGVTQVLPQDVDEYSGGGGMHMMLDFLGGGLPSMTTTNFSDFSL
# Assay: PBM E-score (8-mer binding enrichment) (E-score (-0.5 to 0.5)); higher = stronger / more preferred TF binding; most listed sequences are background and not binding sites
# Settings: protein concentration: 200 nM; construct: GST-full length
# Summary of the method: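 PURExpress in vitro transcription/translation supplied GST-tagged yeast transcription factors, either full-length or DNA-binding domain. Applied at about 100-200 nM to universal all-10-mer Agilent arrays double-stranded by primer extension, the bound protein was detected with fluorescent anti-GST. E-scores, modified Wilcoxon-Mann-Whitney statistics, were given by the Universal PBM Analysis Suite to ungapped eight-base words pooled with their reverse complements after masliner normalisation.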
row,Sequence,PBM E-score
1,CAAAGTGG,-0.131
2,AGTACGTA,0.27
3,GGTAGACC,-0.00883
4,GTGACCGA,0.11
5,GACCGACC,0.102
6,AAGAGGCC,-0.074
7,AGCGCCCT,-0.158
8,GTTCGTGA,0.0858
9,CAGGTCCA,-0.11
10,CTTGCGCC,-0.103
11,CACCACTG,-0.126
12,ATCGACGA,-0.0697
13,CCGACTAC,0.0367
14,ACGAAGCG,0.343
15,ATTCTTTG,-0.17
16,ATTAAGGA,-0.198
17,GCCATTCA,-0.162
18,AGCTGCGA,-0.0413
19,GCTGATGA,-0.0312
20,CTAGTGAA,-0.126
21,CCAGGGAC,-0.193
22,ATGTCTTC,-0.335
23,ACCCAAAC,0.195
24,ATCCCCAC,-0.103

row,Sequence,PBM E-score
1,CAACAGCA,-0.232
2,CAAACGAG,0.484
3,ATATTGAA,0.0809
4,AATCATAG,-0.217
5,GACCGGAC,0.00589
6,CTCTAATC,-0.0321
7,CACGAGTC,0.00415
8,ACCTTCGC,0.0425
9,CAGCGGAG,-0.106
10,AAAGCCCG,0.0429
11,AACATTCG,0.0483
12,AATTACCG,0.217
13,GTTCAGAA,0.222
14,AACAAGAA,-0.031
15,AGTGGATG,-0.00268
16,ACAGACCC,-0.071
17,TACCTGAA,0.0855
18,AAAGGTGG,-0.0797
19,ACGGCCTA,0.157
20,AGATGGCA,0.0387
21,ACCTGAGC,-0.091
22,ACTCAGAT,-0.0886
23,ACGATTAA,0.321
24,TCCGCGCA,-0.0128

row,Sequence,PBM E-score
1,AACTATCA,0.134
2,CTGCGCGC,0.0709
3,GTATTACA,0.123
4,CGGTGCCA,-0.219
5,ACGAGAGG,0.353
6,TACTTCTA,0.022
7,AATACAGA,0.00408
8,CGTACATA,0.415
9,ACCCGACT,0.0188
10,GCGAATCC,0.218
11,AAGCCGAG,0.0185
12,AGCGGTCA,-0.126
13,TCTATTCA,0.0757
14,GGCTGACA,-0.201
15,CATTCGGC,-0.197
16,AACGGGTC,0.201
17,AGCAAGAT,-0.0379
18,GTTTTGTA,0.185
19,GACGCGAC,-0.00419
20,CTCCCTTC,-0.341
21,CTCTTGAC,-0.148
22,AATCTCAG,-0.182
23,GCTTCACA,-0.124
24,ACTTCTTG,0.0022

row,Sequence,PBM E-score
1,AGTCGCAT,0.171
2,ATTATGAA,-0.13
3,GCTCAAAC,0.116
4,GCGAGCAC,0.202
5,GATGTCGC,0.137
6,GATTGGGA,-0.326
7,CTCATACC,0.051
8,CGCTAGTA,0.118
9,CTGGTGGC,-0.12
10,CCGCCCCG,0.136
11,ATAAAATA,-0.00219
12,AAACGTCC,0.156
13,GTGTTCGA,0.206
14,CGTTTTCA,0.13
15,AACGTACG,0.386
16,ACTGCCTG,-0.081
17,ACGTGAAT,0.125
18,CGTCTACC,0.0136
19,GCGGCTAC,-0.136
20,AAGTAGAT,-0.0764
21,ACGATGCG,0.332
22,CGCTCACG,0.124
23,CCAGTACA,-0.157
24,ATCTTGAC,-0.141

row,Sequence,PBM E-score
1,AGGGGTTC,-0.0893
2,AATTGGCA,-0.0372
3,GGTCCAGA,-0.222
4,CGTGAATC,0.00286
5,AGGTGGAC,-0.314
6,GTTCCGCA,0.172
7,GAACGGTA,0.283
8,ACGCAGCC,-0.158
9,AAATTAGT,-0.0881
10,AAAAGCCG,0.0198
11,CCGCGCAC,-0.113
12,AATCAAAA,-0.0286
13,CAATTAAC,0.0844
14,CCCGCCGG,-0.238
15,ACGTAGTC,-0.0476
16,GAGGCAGA,0.0168
17,ATTTTGCA,-0.0911
18,GACCGGCC,-0.11
19,AGCCGTAT,0.378
20,CCAGTGCC,-0.00341
21,CGGGAAAA,0.172
22,CCTATAAA,-0.07
23,GCCGGCGA,-0.152
24,AACATTTA,0.0973

row,Sequence,PBM E-score
1,AGCCATGA,-0.065
2,GGGAGCCC,-0.191
3,CTGTTGTA,-0.0648
4,AAAGAACA,-0.0314
5,TAACTTCA,0.103
6,CAGATTAG,-0.223
7,GACAACAA,-0.0425
8,AGAGATAT,-0.122
9,GAGTGCAC,0.00822
10,AATTTTCC,0.117
11,AGTGAAGA,-0.0947
12,AGCGGAAG,-0.0236
13,CATAGGTA,-0.0203
14,ATTTGAGC,0.0293
15,ACAGCCCA,-0.0191
16,CCGACCGG,0.14
17,CGATGCAA,0.0494
18,ATGACATA,0.0138
19,ATTCGATG,0
20,ATCGCTCA,0.217
21,GTAGCGTA,0.257
22,AGTGTGCA,-0.165
23,CAAGACGA,0.0303
24,ACGTTGAT,0.0223

row,Sequence,PBM E-score
1,CTGGCGGC,-0.173
2,CAGTGCAC,-0.136
3,ACCTGACC,-0.0507
4,AAAAACAC,-0.0437
5,GACCCCAC,0.0512
6,ATACTTTG,-0.0806
7,GGTCGTGA,-0.0444
8,GAGAACCC,-0.121
9,TCAATGGA,-0.238
10,CTCTTATA,0.339
11,AGATGCAG,-0.113
12,AATTATCT,-0.0252
13,ACCGAACT,0.0158
14,CTGGTTTC,-0.0981
15,AGCACAAC,0.0579
16,AAGGCTGA,-0.316
17,AAATTGTG,0.00889
18,AAGAACAC,0.102
19,CAAGACCC,-0.0824
20,AAGACTCG,0.00623
21,CAGCGCAG,-0.217
22,CACGCTGA,-0.154
23,TCCCCAAA,-0.079
24,CGATTGTC,-0.0824

row,Sequence,PBM E-score
1,CAAAAGCC,-0.261
2,CTGATCGA,-0.0874
3,AATACAGC,-0.0975
4,ACTTCATC,-0.0236
5,GAAGGTAC,0.164
6,AGGTCGTG,0.0575
7,CCGCGGCG,-0.117
8,CCAGTGAA,-0.26
9,GACGCCTA,-0.0797
10,AGGTAATA,-0.0412
11,GTGGCCCA,-0.0479
12,ATCCCTCG,0.13
13,AGGCCACA,-0.327
14,CAATGATA,-0.0998
15,ATTCTTCG,0.15
16,GAGGCCAC,-0.112
17,CGTGATAA,0.0618
18,AGTTCACC,0.103
19,GTTTGGTA,0.285
20,CCTCACAG,-0.0653
21,AAAGCCTT,-0.169
22,CTGCATAA,-0.158
23,GTTGGTTA,0.0699

# From the supplement of paper PMC3334620
